# Measured values from PubChem BioAssay AID624296 (National Center for Advancing Translational Sciences (NCATS), 2012).
# Out of some 350,000 compounds screened, about 9,900 (2.8%) were called active. Inconclusive results, whose numbers are uncertain, are shown with a selection of clear calls. The call rests on the fitted dose curve; in most records, active means well fitted activation curve with a large enough effect; inconclusive means small, poorly fitted or top-dose-only effect; inactive means no such curve, though single readings can be large or run the other way. Potencies of inconclusive entries are left out as doubtful fits.
# Experiment: A quantitative high throughput screen for small molecules that induce DNA re-replication in MCF 10a normal breast cells. Further: nearly all actives have a fitted effect of over 50% in size. On activity, positive = re-replication: % of control where 0% means no effect.
# Details: MCF 10A DNA re-replication, Hoechst nuclear intensity, 48 h; activity, positive = re-replication: at 46.1 µM (top of the series)
# Potency means the concentration at half of the fitted maximal effect; tags describe the fitted curve by direction and shape.
Compound,Potency,"activity, positive = re-replication"
COc1ccc(C(=O)NCc2ccc3[nH]c(C)cc3c2)cc1OC,active: 4.61 µM,–
CCOC(=O)C1(CC2CC2)CCN(C(=O)c2cc(C3CC3)nc3ccccc23)CC1,"inconclusive [activator, partial curve]",–
O=C(N/N=C/c1ccc2cccnc2c1)c1nc2ccccc2c(=O)[nH]1,"inconclusive [activator, single point]",–
Cc1nc2sc(C(=O)c3ccccc3)c(N)c2c(C)c1C,–,inactive: -2.12% [at 9.22 µM]
Cc1ccc2oc(NC(=O)N3CCOCC3)cc(=O)c2c1,inactive,–
Cc1ccc(/C(=N/Nc2nc3ccccc3s2)C2=C(O)c3ccccc3C2=O)cc1,"inconclusive [activator, single point]",–
NC(=S)N/N=C/c1cn(-c2ccccc2)nc1-c1cccnc1,inactive,–
COc1ccc(CC(=O)OCC(=O)NNC(=O)c2ccccc2)cc1,"inconclusive [activator, partial curve, poor fit]",–
O=C(Nn1c(C2CCCCC2)nc2ccccc2c1=O)c1ccc([N+](=O)[O-])cc1,"inconclusive [activator, full curve, poor fit]",–
Cc1noc(NS(=O)(=O)c2ccc(NC(=O)C(F)(F)C(F)(F)C(F)(F)F)cc2)c1C,inactive,–
O=C(CCCN1C(=O)S/C(=C\c2ccccc2)C1=O)NNC(=O)c1ccccc1O,"inconclusive [activator, partial curve, poor fit]",–
CCn1c2ccccc2c2cc(/C=N/NC(=O)c3ccccc3C)ccc21,active: 4.61 µM,–
Cc1cc(C(=O)N2CCN(c3ncccn3)CC2)c2cc(F)ccc2n1,"inconclusive [activator, partial curve]",–
CC(C)CCN(C(=O)Nc1ccccc1)C(C)c1cccs1 (configuration not stated),inactive,–
Cc1cccc(OCCCc2c(C)n[nH]c2C)c1,"inconclusive [activator, full curve, poor fit]",–
Cc1cc(NC(=O)CCC(=O)N(c2ccccc2)C(C(=O)NC2CCCC2)c2cccs2)no1 (configuration not stated),inactive,–
Nc1ccc2nn(-c3ccc(F)cc3)nc2c1,active: 18.4 µM,–
N#Cc1ccc(OCc2noc(-c3ccsc3)n2)cc1,"inconclusive [activator, full curve, poor fit]",–
COc1ccc(-n2nc(C(=O)NCC(=O)N3CCC(C)CC3)c3ccccc3c2=O)cc1Cl,inactive,–
O=C1c2ccccc2CC1Sc1nnc(-c2ccccn2)o1 (configuration not stated),"inconclusive [activator, partial curve, poor fit]",–
COc1ccccc1N=Cc1c(O)c2ccccc2oc1=O,"inconclusive [activator, partial curve]",–
O=C(COc1ccccc1[N+](=O)[O-])N/N=C/C=C/c1ccco1,inactive,–
Cc1ccc(-c2cc(C(=O)NCCCn3ccnc3)c3ccccc3n2)s1,"inconclusive [activator, single point]",–

Compound,Potency,"activity, positive = re-replication"
COc1c(Cl)cc(-c2noc(C)c2C(=O)NCCc2ccc(C)cc2)cc1Cl,"inconclusive [activator, partial curve, poor fit]",–
CCOc1ccccc1N1CCN(C(=O)c2cc(-c3cc(OC)ccc3OC)nc3ccccc23)CC1,"inconclusive [activator, single point]",–
O=S(=O)(NCCc1ccccc1)c1cccc2nsnc12,active: 5.17 µM,–
Cc1cc(Cl)n2c(nc3cc(F)c(F)cc32)c1C#N,"inconclusive [activator, full curve, poor fit]",–
Cc1ccc(Cl)c(NC(=O)COC(=O)c2ccccc2C(=O)c2ccc(Cl)c([N+](=O)[O-])c2)c1Cl,active: 2.59 µM,–
O=C(Oc1ccc([N+](=O)[O-])cc1)c1cc(-c2ccccc2)nc2ccccc12,"inconclusive [activator, partial curve, poor fit]",–
COc1cc(CNc2ncnc3c2[nH]c2ccc(C)cc23)cc(OC)c1,"inconclusive [activator, single point]",–
c1ccc2c(c1)CCN(c1nc(CN3CCOCC3)nc3sc4c(c13)CCCC4)C2,"inconclusive [activator, single point]",–
O=C(c1cc(-c2ccco2)nc2ccccc12)N1CCN(c2ccc(F)cc2)CC1,"inconclusive [activator, single point]",–
Cc1nc(SCC(=O)Nc2ccc(F)cc2)c2oc3ccccc3c2n1,"inconclusive [activator, single point]",–
Cc1cccc(OCCCC(=O)Nc2ccc(Br)cc2)c1,"inconclusive [activator, partial curve, poor fit]",–
O=c1[nH]c(C2CCCN(S(=O)(=O)c3ccc(F)cc3)C2)nc2c1nnn2Cc1ccc(F)cc1 (configuration not stated),"inconclusive [activator, partial curve, poor fit]",–
NC(=S)N=Nc1c(O)[nH]c2c(Br)cc(Br)cc12,"inconclusive [activator, single point]",–
CN(Cc1ccccc1)C1(CNC(=O)CCC(F)(F)F)Cc2ccccc2C1,inactive,–
Cc1ccccc1C(=O)NC(=S)Nc1ccccc1C(F)(F)F,inactive,–
O=C(Nc1cn(-c2ccccc2)nc1-c1ccccc1)c1ccccc1,"inconclusive [activator, single point]",–
Cc1ccc(Nc2cc(C)nn2-c2nc(C)cc(C)n2)cc1,"inconclusive [activator, single point]",–
CCOc1cc(CNc2ccccc2)cc(Br)c1OCC(=O)NC(C)(C)C,"inconclusive [activator, partial curve, poor fit]",–
CC(C)N(Cc1nc(-c2ccc(Cl)cc2)no1)C(=O)CCC1CCCC1,"inconclusive [activator, single point]",–
CC(C)(C)N1C(=O)[C@H]2[C@@H](c3ccc(Br)cc3)N3C(=O)N(c4cccc(Br)c4)C(=O)[C@@]3(Cc3ccccc3)[C@H]2C1=O,"inconclusive [activator, partial curve, poor fit]",–
CCOC(=O)c1[nH]c2ccc(OC)cc2c1NC(=O)CN1CCc2ccccc2C1,"inconclusive [activator, partial curve]",–
COc1ccc(C(=O)/C=C/Nc2c(C)n(C)n(-c3ccccc3)c2=O)cc1OC,"inconclusive [activator, single point]",–
CCN(CCCn1c(=S)[nH]c2ncccc2c1=O)c1ccccc1,inactive,–

Compound,Potency,"activity, positive = re-replication"
CCOC(=O)CNc1nc(C#N)nc(N2CCOCC2)n1,"inconclusive [activator, single point]",–
OCC1(Cc2cccc(Cl)c2)CCCN(Cc2ccc(F)c(F)c2)C1 (configuration not stated),"inconclusive [activator, single point]",–
CSc1nc2ccc(NC(=O)C3CCCO3)cc2s1 (configuration not stated),"inconclusive [activator, partial curve, poor fit]",–
COc1ccc(N=c2cc(-c3ccc(O)cc3)oc3ccccc23)cc1,"inconclusive [activator, single point]",–
Cc1ccc(NC(=O)c2nc(S(=O)(=O)Cc3ccccc3C)ncc2Cl)cc1C,"inconclusive [activator, single point]",–
Cc1ccc(C)c(N2CCN(C(c3ccc(N(C)C)cc3)c3nnnn3C(C)(C)C)CC2)c1 (configuration not stated),inactive,–
COc1ccc(S(N)(=O)=O)cc1C(=O)OCCCC(=O)c1ccccc1,inactive,–
CC(C)CC1Nc2ncnc(N3CCN(c4ccccc4)CC3)c2N(Cc2ccc(Cl)cc2)C1=O (configuration not stated),"inconclusive [activator, single point]",–
COC(=O)NC(NS(=O)(=O)c1ccccc1)(C(=O)OC)C(F)(F)F (configuration not stated),"inconclusive [activator, single point]",–
O=C(CC(c1ccccc1)c1ccccc1)Nc1ccc(C(=O)O)cc1,inactive,–
Cc1csc(NC(=O)CN2C(=O)COc3ccc(Cl)cc32)n1,inactive,–
O=C(NCCN1CCN(Cc2ccccc2)CC1)Nc1cc(Cl)cc(Cl)c1,"inconclusive [activator, partial curve, poor fit]",–
CC1=C[C@@H](O)CC(C)(C)[C@@H]1/C=C/C(C)=C/C=C/C(C)=C/C=C/C=C(C)/C=C/C=C(C)/C=C/C1=C(C)C[C@H](O)CC1(C)C,active: 29.9 µM,–
COC(=O)c1c(NS(=O)(=O)c2ccc3ccccc3c2)sc2c1CCCC2,"inconclusive [activator, partial curve, poor fit]",–
O=C(Nc1nccs1)C1CCCN(S(=O)(=O)c2cccc3cccnc23)C1 (configuration not stated),inactive,–
Cc1ccc(CNC(=O)C2CC(c3cc(C(F)(F)F)cc(C(F)(F)F)c3)=NO2)o1 (configuration not stated),active: 9.2 µM,–
COC(=O)COc1ccc2occ(C(C)=O)c2c1,active: 8.2 µM,–
CCCCC(c1nnnn1CC1CCCO1)N1CCN(c2cccc(C)c2C)CC1 (configuration not stated),"inconclusive [activator, full curve]",–
CC1(C)C2CC=C(/C=N/NC(=S)NCCc3ccccc3)C1C2 (configuration not stated),"inconclusive [activator, partial curve]",–
OC[C@H]1O[C@H](OCCc2ccc(O)cc2)[C@H](O)[C@@H](O)[C@@H]1O,inactive,–
CC(=O)Nc1ccc(NC(=O)C2CCC(N3C(=O)C4C5C=CC(C6CC56)C4C3=O)CC2)cc1 (configuration not stated),active: 23.1 µM,–
